To fix the notation:
B1: tRNA (parent)
chain: CUCUCGGUAGCCAAGUUGGUUUAAGGCGCAAGACUUUAAUUUAUCACUACGAAAUCUUGAGAUCGGGCGUUCGACUCGCCCCCGGGAGAUUUUUUCCUCGAGCAA

This sample is rich in variants without activity. A value given as a limit tells only on which side of the number the result lay.

Variants of B1 are the subject of this data set. In words: nonsense suppression (GFP-seq) (ratio to wild type); higher = more function; SUP4oc tRNA, yeast GFP reporter sort-seq. The essentials:
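Yeast were grown in raffinose/galactose medium with 80 mg/L adenine, each strain bearing a genome-integrated ochre-suppressor tRNA variant from a ~3% random-mutation library, a galactose-driven GFP ochre reporter, and RFP. After sorting into GFP/RFP bins, every bin was sequenced on an Illumina platform at phred ≥30. The GFPSEQ value, a measure of nonsense suppression, is the weighted bin median GFP/RFP relative to the unmutated parent tRNA, using each variant's estimated cell share per bin as the weight. Only variants with ≥100 reads and ≥30 cells were included.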
As to G6U G69C G86U, the nonsense suppression is at most 0.026.
For the variant G15C C56A, the nonsense suppression was at most 0.026.
C29G C72A: the nonsense suppression was at most 0.026.
With C3U U57G G85C, the nonsense suppression was at most 0.026.
As to A14G C34U C64G C77U, the nonsense suppression was at most 0.026.
C5A A24C G61U G67C: the nonsense suppression is at most 0.026.
As for C1A U2C U16G A24C G61C G85C, the nonsense suppression was at most 0.026.
Consider U57C A74C U76G A87U, for which the nonsense suppression is at most 0.026.
With G65C C68U, the nonsense suppression was at most 0.026.
For G26A A30C G73C G88U, the nonsense suppression is at most 0.026.
Take U8G G61C: the nonsense suppression is at most 0.026.
C12U A14U U63C: the nonsense suppression is at most 0.026.
G10C G28U C75G: the nonsense suppression is at most 0.026.
Consider G10U G59U G86C, for which the nonsense suppression was at most 0.026.
For the variant A14U U22C, the nonsense suppression was at most 0.026.
With A13G C81A, the nonsense suppression is at most 0.026.
For G18A C83A, the nonsense suppression was at most 0.026.
Turning to G6C G88A, the nonsense suppression was at most 0.026.
For C82G G84C G88U, the nonsense suppression was at most 0.026.
In the case of U16C U55A U76G C77G G85A G88A, the nonsense suppression was at most 0.026.
U4G C80A G84C: the nonsense suppression is at most 0.026.
For A14C C56U, the nonsense suppression was at most 0.026.
With C12U C34G C68A U70G, the nonsense suppression is at most 0.026.
A14G G65A G67C G69C U71G: the nonsense suppression was at most 0.026.
Under C56A G88A stands at most 0.026; under A23G G26C, at most 0.026; under C82G G85A, at most 0.026.
For C34U U71C C77G, the nonsense suppression is at most 0.026.
Regarding G73C, the nonsense suppression was at most 0.026.
As for A14C U76G, the nonsense suppression is at most 0.026.
In the case of A14C A31C U58C C72A U76C C77G, the nonsense suppression is at most 0.026.
A23G C34G C56G U57G U58G: the nonsense suppression was at most 0.026.
Consider G19C C34U, for which the nonsense suppression is at most 0.026.
Regarding C82G, the nonsense suppression was at most 0.026.
Regarding U20G G73C, the nonsense suppression was at most 0.026.
For G18A U55G G78A G86A, the nonsense suppression was at most 0.026.
For C29A C34G G59U U71C, the nonsense suppression was at most 0.026.
Consider C3U A87U, for which the nonsense suppression was at most 0.026.
For U2C C3U C12U G15A, the nonsense suppression was at most 0.026.
For C5U C12A A62G G66C C81G C82U, the nonsense suppression was at most 0.026.
Consider C5A C29A G65C U76A, for which the nonsense suppression was at most 0.026.
As to C5A A23U G59C, the nonsense suppression is at most 0.026.
On to G28U A33G A54G C80G, for which the nonsense suppression is at most 0.026.
Regarding G18U G65C G88A, the nonsense suppression is at most 0.026.
C11A U58A C80G: the nonsense suppression was at most 0.026.
For the variant G28U G78U, the nonsense suppression is 0.0435.
Regarding A23G G32C C81G, the nonsense suppression was at most 0.026.
Under G25U U71G G84U stands at most 0.026; under U8A U71A G86U, at most 0.026.
Under G7U U21A stands at most 0.026; under U35G C75G, at most 0.026; under U17C U57A U58G, at most 0.026.
Turning to U2C A31G, the nonsense suppression was found to be 0.0356.
Turning to C56A G65C U76C, the nonsense suppression was at most 0.026.
Consider U2C U63C U71C G86A, for which the nonsense suppression was at most 0.026.
In the case of A23G C34A G69U A74U C75G, the nonsense suppression is at most 0.026.
For the variant C5U U71A C81G, the nonsense suppression is at most 0.026.
Under C11U A24G C27A stands at most 0.026.
Consider G7C G15C G67A, for which the nonsense suppression was at most 0.026.
Under C1G U16A G19U stands at most 0.026.
With G15U G61U U63A G88A, the nonsense suppression is at most 0.026.
As to C5U C34G, the nonsense suppression is at most 0.026.
As for C3G C5G G69C G85U, the nonsense suppression is at most 0.026.
On to C11G A23U A33G U71G A89C, for which the nonsense suppression was at most 0.026.
C12A A30U: the nonsense suppression was at most 0.026.
Turning to G7A G69A, the nonsense suppression was at most 0.026.
For the variant A23C A31C G59A A60C, the nonsense suppression was at most 0.026.
Under U20A G88A stands at most 0.026; under A33C U63A, at most 0.026; under A24C G32U, 0.043.
In the case of C3U G26U U70G C80G, the nonsense suppression was at most 0.026.
Regarding C5U U70G, the nonsense suppression is at most 0.026.
On to U16A G26U C81U, for which the nonsense suppression is at most 0.026.
On to C34A U71C, for which the nonsense suppression was at most 0.026.
In the case of U20A U58G A87C, the nonsense suppression was at most 0.026.
Under A23G A31G U57C U58G G65C G85A stands at most 0.026; under U58G A60U G73A G88C, at most 0.026; under C5U U57A, at most 0.026.
In the case of U16G C82A, the nonsense suppression is at most 0.026.
Under U35C C68A C81A C83G stands at most 0.026; under G15A, 0.188.
Under C5A A9U U16G G25A U35G U63A stands at most 0.026; under A23C G59C G61C, at most 0.026.
Turning to U2C A74C, the nonsense suppression is at most 0.026.
Consider A30U G84U, for which the nonsense suppression came to 0.423.
In the case of G7C A9U G59C G86C, the nonsense suppression was at most 0.026.
For A14U G15A G65U, the nonsense suppression is at most 0.026.
Turning to A30U C56G G61A G67C, the nonsense suppression was at most 0.026.
Turning to U63A G85A, the nonsense suppression was determined as 1.09.
Take U63A G85U: the nonsense suppression came to 0.23.
With C11U G26A U63C, the nonsense suppression is 0.212.
Under U4G A23U A24C A33U G67A G84C A87G G88C stands at most 0.026; under U55A G88C, at most 0.026.
On to C3G C72G, for which the nonsense suppression was at most 0.026.
Under U17A C83G stands at most 0.026; under G19U U57C U63C, at most 0.026.
Turning to U20C G73C, the nonsense suppression is at most 0.026.
Under G18A U21G A23C A30G G86A stands at most 0.026.
Under C5U G25A stands at most 0.026; under C5U G25C, at most 0.026; under C12G G28C C29G C79G A87U, at most 0.026.
Regarding C5A A24G, the nonsense suppression is at most 0.026.
As to A23U G32A U70G, the nonsense suppression was at most 0.026.
Regarding U55G C83G, the nonsense suppression was at most 0.026.
Regarding U21A G88A, the nonsense suppression was at most 0.026.
Consider C29G G73U, for which the nonsense suppression is at most 0.026.
In the case of G59A A60C C80G, the nonsense suppression was at most 0.026.
Under C64U C82U C83G stands at most 0.026.
As for G6U C82U, the nonsense suppression is at most 0.026.
Under G6U A31G C64U C75G stands at most 0.026; under A13C G26U U55A C79A A87C, at most 0.026.
Under U17C G32C stands at most 0.026; under U16G, 1.
Regarding U2C U58G U70C, the nonsense suppression is at most 0.026.
Regarding C5U C72U, the nonsense suppression was at most 0.026.
Under A31U G59A A60G stands at most 0.026; under C3A C11G U20A, at most 0.026.
Under U63C G73A stands 0.11; under U2C A30C A60G G85A, at most 0.026.
Regarding A89U, the nonsense suppression is at most 0.026.
Under G6U G19A stands at most 0.026.
With A9G G65A C81U, the nonsense suppression was at most 0.026.
Under G7A G86U stands at most 0.026; under C56G U57G C77U, at most 0.026; under G15C G19U, at most 0.026.
With U71A G86A, the nonsense suppression was at most 0.026.
As for C27A A62U, the nonsense suppression is at most 0.026.
Under U20C U22G U71G stands at most 0.026; under U2C U57A U63A C72G G73A C82G, at most 0.026.
With U57C U70A A74C, the nonsense suppression was at most 0.026.
For the variant G10C G78A C79U A87C, the nonsense suppression is at most 0.026.
Under G10A C11G A23G stands at most 0.026.
For G32U G66U G69U, the nonsense suppression is at most 0.026.
For the variant C3A U21C A31U A33C A54U U55C G84A, the nonsense suppression was at most 0.026.
For G15U G18A U55C G59U U63G C72G C82U G85C, the nonsense suppression is at most 0.026.
As for A9U G10C, the nonsense suppression was at most 0.026.
Under C5U A74G C77A stands at most 0.026; under C1U U22G G69A, at most 0.026.
As for U2G A33C, the nonsense suppression is at most 0.026.
Regarding G7A U76C G88U, the nonsense suppression is at most 0.026.
Under C5U A33G C56U stands at most 0.026; under A30U U55G, at most 0.026; under U2G C11U A23C A89C, at most 0.026.
G69C C75A: the nonsense suppression is at most 0.026.
Under G19C G86A stands at most 0.026.
Turning to A9C U22G, the nonsense suppression came to 0.878.
For the variant C12A G15C U22C, the nonsense suppression was at most 0.026.
Under G59A U71C stands at most 0.026; under C64G G66U A87G, at most 0.026; under G15U U35G C83U, at most 0.026.
C11U A13C A23C: the nonsense suppression is at most 0.026.
Consider C11A C83U, for which the nonsense suppression is at most 0.026.
In the case of G28C G59U C79A C83G, the nonsense suppression is at most 0.026.
In the case of G7A G18U C34A G61U G65A C72U, the nonsense suppression is at most 0.026.
For the variant C3U C5G C80A C81U, the nonsense suppression is at most 0.026.
For U2C G15A U58G U70C G85A, the nonsense suppression is at most 0.026.
Take C11U G18U A62C C64A C82A: the nonsense suppression is at most 0.026.
On to C56A U71G C82A, for which the nonsense suppression is at most 0.026.
As for C5U U22A G26A U76C, the nonsense suppression was at most 0.026.
Take C5G U35A C64A: the nonsense suppression is at most 0.026.
Under U2G C5U A31C U63A stands at most 0.026.
Turning to G6U G19U C27A, the nonsense suppression is at most 0.026.
For G6U A9U A23C C82A, the nonsense suppression is at most 0.026.
In the case of A33C C34U C79A A87U, the nonsense suppression is at most 0.026.
Under U4A G7U C29U U76C stands at most 0.026; under A13G C34A, at most 0.026.
For the variant C27U A60C G73A C82A, the nonsense suppression was at most 0.026.
